# Measurements from PubChem BioAssay AID488969 (Vanderbilt High Throughput Screening Facility, 2010).
# In all, about 110,000 compounds were measured (“z-score”: median about -0.1, highest 2% from about 2 on). The list shows a part of the results. Active and inactive are the calls of the source.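 Rule for the calls: active = z-score in the third read window above 3 or below -3; inactive = the rest.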
# Target: Metabotropic glutamate receptor 8 (Rattus norvegicus) (UniProt P70579)
# Experiment: mGluR8 Gi/Go-coupled signaling modulation – cell-based, rat, thallium flux, HTS, primary screen (AID 488969)
# Settings: HEK293 rat mGluR8, GIRK (G protein-gated inwardly rectifying potassium channel) thallium flux, FluoZin2; at 10 µM; stronger effect = higher value; submaximal glutamate (EC20) added with thallium
# UniProt P70579, sequence (P70579 whole entry, looked up): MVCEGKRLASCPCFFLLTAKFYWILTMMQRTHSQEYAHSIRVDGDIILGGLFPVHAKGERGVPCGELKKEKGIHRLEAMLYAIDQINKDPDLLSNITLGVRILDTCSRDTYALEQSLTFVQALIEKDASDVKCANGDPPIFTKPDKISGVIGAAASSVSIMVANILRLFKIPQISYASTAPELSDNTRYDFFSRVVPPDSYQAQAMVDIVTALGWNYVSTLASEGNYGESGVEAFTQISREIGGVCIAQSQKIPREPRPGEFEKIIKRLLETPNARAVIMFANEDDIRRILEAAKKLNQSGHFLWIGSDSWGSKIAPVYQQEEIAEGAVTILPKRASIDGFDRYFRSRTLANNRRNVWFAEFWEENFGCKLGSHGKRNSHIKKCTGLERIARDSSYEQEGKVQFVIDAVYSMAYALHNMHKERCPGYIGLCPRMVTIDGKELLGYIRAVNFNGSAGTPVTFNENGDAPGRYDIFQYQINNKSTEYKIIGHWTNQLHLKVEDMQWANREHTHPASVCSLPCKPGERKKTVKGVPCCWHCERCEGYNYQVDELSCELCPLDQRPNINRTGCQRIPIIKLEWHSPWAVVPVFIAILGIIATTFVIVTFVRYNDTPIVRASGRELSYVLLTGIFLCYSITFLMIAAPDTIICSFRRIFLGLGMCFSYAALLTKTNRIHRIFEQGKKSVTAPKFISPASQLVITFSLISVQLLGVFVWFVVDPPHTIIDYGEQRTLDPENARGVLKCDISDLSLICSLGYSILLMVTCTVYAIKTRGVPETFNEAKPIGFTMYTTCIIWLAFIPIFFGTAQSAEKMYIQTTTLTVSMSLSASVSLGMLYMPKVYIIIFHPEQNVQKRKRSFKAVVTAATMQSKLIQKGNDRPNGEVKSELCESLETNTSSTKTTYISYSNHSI
row,SMILES,z-score
1,Cn1ncc(Br)c1C(=O)N/N=C/c1ccc(OS(=O)(=O)c2ccccc2)cc1,-0.215
2,CC1=C(C(=O)Nc2ccccc2)C(c2cccs2)n2nnnc2N1 (centres undefined),-0.948
3,Clc1ccc(-n2cccc2/C=N/n2cnnc2)cc1,-0.373
4,COc1cc2c(cc1OC)C1(Nc3c-2c(Cc2ccccc2)nn3-c2ccccc2)C(=O)Nc2ccccc21 (centres undefined),-0.11
5,O=C(Nc1nc(-c2ccccc2)cs1)c1ccc(N2CCOCC2)c([N+](=O)[O-])c1,-0.0442
6,Fc1ccccc1NC(=S)Nc1ccc(Br)cc1,0.657
7,O=c1[nH]c(CSc2nc(-c3ccc(F)cc3)cs2)nc2ccccc12,-0.441
8,CCOc1ccc(N2CC(C(=O)NCCC3=CCCCC3)CC2=O)cc1 (centres undefined),-1.42
9,COC(=O)C1=C(O)/C(=C\c2sccc2C)N=C1C,-0.319
10,O=C(Cn1c(/C=C/c2ccccc2)nc2ccccc21)Nc1ccc(F)cc1,-0.464
11,CCN(c1ccccc1)S(=O)(=O)c1ccc(Cl)c(C(=O)NCCc2ccc(OC)cc2)c1,-0.46
12,COc1cc(C(=O)Nc2ccc(Cl)c(C(F)(F)F)c2)cc(OC)c1OC,-0.147
13,O=C(O)/C(=C\c1ccc(Br)cc1)c1ccc(S(=O)(=O)N2CCCCC2)s1,-0.862
14,COc1ccc(-n2c(SCC(=O)NCc3ccco3)nc3c([nH]c4ccccc43)c2=O)cc1,0.0265
15,CCC(=O)Nc1ccc(C(=O)Nc2cccnc2)cc1,0.103
16,c1ccc(CN2CCN(c3nc(NCc4ccco4)c4ccccc4n3)CC2)cc1,1.88
17,CCCCNC(=O)c1cc2n(n1)C(C(F)(F)F)CC(c1ccccc1)N2 (centres undefined),0.568
18,Cc1ccc(S(=O)(=O)N2CCOCC2)c(C)c1NS(C)(=O)=O,-0.124
19,CCOc1cc(S(=O)(=O)Nc2ccccc2CC)ccc1Cl,0.122
20,O=C1NC(=O)C(CC(=O)N(c2ccccc2)C2(C(=O)NC3CCCC3)CCCCC2)N1 (centres undefined),-0.564
21,COc1cc(C)c(C(C)C)cc1S(=O)(=O)n1ccnc1,-0.0729
22,Cc1oc2c(C)c(O)ccc2c(=O)c1N1C(=O)c2ccccc2C1=O,-0.166

row,SMILES,z-score
1,O=[N+]([O-])C1=CC=C2C(=NC3(CCCCC3)N2O)C1=NCCO,-0.049
2,CC(=O)Oc1ccc(-c2cccc(C(=O)O)c2)cc1,-0.607
3,O=C(C1CCN(S(=O)(=O)c2ccc3ccccc3c2)CC1)N1CCN(c2ncccn2)CC1,-0.316
4,COc1ccc(CC(=O)NNc2ncnc3c2cnn3-c2ccc(C)cc2)cc1OC,-0.157
5,O=C(CCNS(=O)(=O)c1cccc2nsnc12)N1CCc2ccccc21,0.209
6,O=C(NC1CCCC1)C(c1cccs1)N(Cc1ccco1)C(=O)Cn1nnc(-c2cccs2)n1 (centres undefined),0.388
7,COc1ccc(NC(=O)C2CCCN(S(=O)(=O)c3c(C)[nH]c(=O)[nH]c3=O)C2)cc1 (centres undefined),-0.193
8,CNc1ccc(S(=O)(=O)NCC(=O)OCC(=O)Nc2cccc(Cl)c2Cl)cc1[N+](=O)[O-],-0.201
9,CC(C)Cc1[nH]c(=O)c(C#N)c2c1COC(C)(C)C2,0.0865
10,O=C(CSc1ncn[nH]1)Nc1ccccc1Sc1ccc(Cl)cc1,-0.254
11,C/C(=N\NC(=S)Nc1ccc(C)c(C)c1)c1ccc(N2CCOCC2)cc1,0.458
12,CCC1(C(=O)OC)NC(c2cccc(F)c2)C2C(=O)N(C)C(=O)C21 (centres undefined),-0.0658
13,CCOc1ccc2[nH]c(=O)c(CN(CC3COCCO3)C(=O)C3CC3)cc2c1 (centres undefined),-0.278
14,Cc1cccc(OCC(O)Cn2c(=N)n(CCN3CCOCC3)c3ccccc32)c1 (centres undefined),1.06
15,c1ccc2c(c1)nc(CN1CCOCC1)n1c3ccccc3nc21,0.336
16,Fc1ccc(Oc2nccc(-c3ccc(Cl)cc3)n2)cc1,-0.0536
17,CCOC(=O)/C(C#N)=C/c1ccc(OC(=O)c2ccccn2)cc1,-0.24
18,O=c1[nH]c2sc3c(c2c(=O)n1Cc1ccccc1)CCC3,-0.117
19,O=C(c1cccc(F)c1)N1CCN(c2cccc(C(F)(F)F)c2)CC1,0.657
20,Cc1cccc(NC(=O)CSc2nc3ccc(N4C(=O)c5ccccc5C4=O)cc3s2)c1C,0.0104
21,Cc1c(C(=O)O)cccc1-c1ccc(C=O)o1,0.12
22,Cc1cc(COc2ccccc2OCc2cc(C)no2)on1,0.355

row,SMILES,z-score
1,CCN(C1CCS(=O)(=O)C1)S(=O)(=O)c1cccs1 (centres undefined),0.297
2,CCCNC(=S)Nc1ccc(Br)cc1,0.593
3,CCCn1c(SCc2ccon2)nc2ccccc2c1=O,0.14
4,COCCn1c(SCC(=O)NC(=O)NCc2ccccc2)nc2ccccc21,1.78
5,Oc1ccc(N=Nc2n[nH]c(-c3ccc(Br)cc3)n2)cc1,0.0625
6,COC(=O)c1ccc(C)c(NC(=O)Cn2cnc3ccccc3c2=O)c1,0.133
7,COc1ccc(-c2csc(Cc3nnc4n3CCCCC4)n2)cc1,0.205
8,COCCCNC(=O)c1cc(C)nc2ccc(F)cc12,-0.192
9,Cc1ccccc1C(=O)N1CCC(C(=O)Nc2ccc(F)cc2)CC1,0.221
10,CC1C(O)=C(c2nc3ccccc3[nH]2)C(=N)N1c1ccccc1 (centres undefined),-0.532
11,CC1CC(Nc2ccccc2)=CC(=O)O1 (centres undefined),-0.0738
12,CCOC(=O)c1ccc(N/C(=N/S(=O)(=O)c2ccccc2)c2ccccc2)cc1,-0.451
13,CCCCn1c(NCc2ccc3c(c2)OCO3)nc2ccccc21,-1.26
14,OCC1CCCN(c2nc(CN3CCCCC3)nc3scc(-c4ccccc4)c23)C1 (centres undefined),0.295
15,CCCCCC1CCC(c2ccc(C(N)=O)cc2)CC1 (centres undefined),-0.00317
16,COCCCn1c(SCc2cccc(OC)c2)nc2cc(OC)c(OC)cc2c1=N,-0.676
17,CCCC(=O)Nc1c(-c2cccs2)c(=O)c2ccccc2n1C,-0.175
18,CC1=C(C)C(=O)NC(Nc2nc(C)c3cc(C)cc(C)c3n2)N1 (centres undefined),-0.695
19,C=C(C)CSc1nnc([C@@H]2CCCN2C(=O)OC(C)(C)C)o1,0.557
20,COCCCNC(=O)c1ccc(C(=O)NCCCOC)cc1,0.139
21,CCOc1ccc(NC(=O)C2=C(C)C(=O)OC23CCC(C)CC3)cc1 (centres undefined),0.156
22,COc1ccc(C2CC(=O)C3=C(C2)Nc2ccccc2NC3c2coc3ccccc3c2=O)cc1OC (centres undefined),-0.442

row,SMILES,z-score
1,O=C(Nc1ccc(OCC(F)(F)C(F)F)c(C(F)(F)F)c1)c1ccccc1O,-0.111
2,Cc1cc2nnc(SC3CCCCN(C(=O)c4ccc(F)cc4)C3=O)n2c2ccccc12 (centres undefined),-1.06
3,CCCCOc1ccc(Cl)cc1CSc1nnc(CC)n1N,-0.694
4,O=C(CSCc1nc2ccccc2[nH]1)N1CCN(c2cccc(Cl)c2)CC1,0.0357
5,CCCC(=O)Nc1nc(-c2ccc3c(c2)CCN3S(C)(=O)=O)cs1,-0.329
6,Cc1c(C(=O)NCCSCc2ccc(Cl)cc2Cl)cccc1[N+](=O)[O-],-0.37
7,CCOCCCNC(=O)c1ccccc1SC,0.03
8,COC(=O)C(C)n1cnc2c(cnn2-c2ccc(Cl)cc2)c1=O (centres undefined),0.0795
9,O=C(Cc1nc(=O)c2ccccc2s1)Nc1ccccc1,-0.368
10,CC1CCC(C(=O)NC(C(=O)N2CCc3ccccc3C2)C(C)C)CC1 (centres undefined),-0.269
11,CNC(=S)N/N=C/c1cn(Cc2ccc(F)cc2)c2ccccc12,0.0629
12,COc1ccc(CCCC(=O)NC2CCCCC2C)c(C)c1 (centres undefined),0.0192
13,Nc1c(Cl)ncnc1N1CCOCC1,-0.00864
14,CSc1ccccc1NC(=O)CSCc1ccccc1Br,-0.153
15,Cc1cccc2c1CC(C)(C)N=C2C1=C(O)CC(C)(C)CC1=O,0.717
16,COc1ccccc1N1CCN(C2=NS(=O)(=O)c3ccccc32)CC1,0.155
17,Nc1ccc(SC(F)(F)F)cc1C(=O)c1ccccc1,-0.00154
18,COc1ccc(NC(=O)CN(C)CC(=O)Nc2ccccc2SC)cc1Cl,-0.43
19,Cc1ccc(S(=O)(=O)Nc2cc(-c3nn(C)c(=O)c4ccccc34)ccc2N2CCOCC2)cc1,-0.419
20,CCOC(=O)CSc1nc2c(sc(=S)n2-c2ccccc2OC)c(=O)n1Cc1ccco1,-1.88
21,O=C(c1ccc(-n2cnnn2)cc1)N1CCOCC1,0.54
22,CCOc1cccc(NC(=O)Cn2nc(-c3ccc4c(c3)OCCO4)ccc2=O)c1,-1.19

row,SMILES,z-score
1,CCCN1C(=O)c2cc(C(=O)NC3CCCC3)ccc2C1O (centres undefined),-0.238
2,Clc1ccccc1COc1ccc(/C=N/n2cnnc2)cc1,0.0759
3,Cc1cccc(C(=O)N2CCN(c3ccccn3)CC2)c1,-0.2
4,CCn1c(CNC(=O)COc2ccc(C(C)C)cc2)nnc1SCC(=O)Nc1ccccc1C(C)C,-0.367
5,COc1ccc(NS(=O)(=O)c2cccc(NC(=O)C34CCC(CC3)C4)c2)cc1,-0.0275
6,Cc1cc(C)nc(NS(=O)(=O)c2ccc(N/C=C3\CCCC3=O)cc2)n1,-0.331
7,C=CCn1c(=NC(=O)C2CC2)sc2cc(NC(C)=O)ccc21,-0.407
8,O=C(c1ccccc1)c1cc2ccc(O)cc2oc1=O,-0.849
9,Cc1ccc(-n2nnnc2Sc2nc([N+](=O)[O-])nn2C)cc1C,-0.186
10,CCOC1(OCC)N=C(N)C2(C#N)C(c3ccc(NC(C)=O)cc3)C12C#N (centres undefined),0.154
11,CN(C)CCNCc1ccccc1OC1CCCC1,-0.633
12,O=C(COc1cccc(F)c1)N[C@@H](Cc1ccccc1)c1nc2ccccc2[nH]1,-0.645
13,Cc1sc2nc(SCC(=O)Nc3c(C)n(C)n(-c4ccccc4)c3=O)n(C)c(=O)c2c1C,-2.68
14,Cc1c(C(=O)NC(=S)Nc2ccccc2N2CCCC2)cccc1[N+](=O)[O-],active: 3.83
15,COc1ccc(NC(=O)CCC(=O)OC(C(=O)c2ccccc2)c2ccccc2)cc1 (centres undefined),-0.149
16,Cc1cc(C)n(CCc2nc(-c3cccs3)cs2)n1,0.245
17,C=CCNC(=O)/C(C#N)=C/c1cn(-c2ccccc2)nc1-c1ccc(OC)c([N+](=O)[O-])c1,-0.121
18,CN(CCC(=O)Nc1ccc(Br)cc1)Cc1ccccc1,1.33
19,COCCCNC(=O)CCN1C(=O)COc2ccccc21,0.489
20,CC(NC(=O)c1ccc(CS(=O)(=O)c2cccc(C(F)(F)F)c2)o1)c1ccc2c(c1)OCCO2 (centres undefined),-1.17
21,O=C(NC(=S)N(CCCCO)C1CCCCC1)c1sc2ccccc2c1Cl,active: 9.88
